In the supplement of paper PMC8728848:
The list shows a part of the results.

What was measured:
Experiment in all cases: glycan array binding signal (z-score within array); higher = stronger binding
Conditions in all cases: glycan notation: IUPAC condensed, linker removed
[1] = target: GlcNAc(b1-4)GlcNAc(b1-4)GlcNAc(b1-4)GlcNAc(b1-4)GlcNAc(b1-4)GlcNAc
Outline: (§1)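 Glycan array data were curated from 3228 arrays in the Consortium for Functional Glycomics database and kept only where the protein sequence was available. Glycan names were converted to IUPAC-condensed notation, and columns mapping to the same glycan were averaged. The binding signal is a within-array Z-score, averaged across arrays of the same protein sequence at different concentrations or buffers and across linkers. Negative Z-scores can be read as non-binding.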

[2] = target: GlcNAc(b1-4)[GlcNAc(b1-6)]GalNAc
Outline: as §1

[3] = target: GlcNAc(b1-6)Gal(b1-4)GlcNAc
Outline: as §1

GlcNAc(b1-6)GalNAc = target: GlcNAc(b1-6)GalNAc
Outline: as §1

[4] = target: GlcNAc6S(b1-3)Gal(b1-4)GlcNAc
Outline: as §1

Kdn(a2-3)Gal(b1-3)GalNAc = target: Kdn(a2-3)Gal(b1-3)GalNAc
Outline: as §1

Kdn(a2-3)Gal(b1-3)GlcNAc = target: Kdn(a2-3)Gal(b1-3)GlcNAc
Outline: as §1

Kdn(a2-3)Gal(b1-4)Glc = target: Kdn(a2-3)Gal(b1-4)Glc
Outline: as §1

Kdn(a2-3)Gal(b1-4)GlcNAc = target: Kdn(a2-3)Gal(b1-4)GlcNAc
Outline: as §1

[5] = target: Kdn(a2-3)Gal(b1-4)[Fuc(a1-3)]GlcNAc
Outline: as §1

Kdn(a2-6)Gal(b1-4)GlcNAc = target: Kdn(a2-6)Gal(b1-4)GlcNAc
Outline: as §1

[6] = target: Man(a1-2)Man(a1-2)Man(a1-3)Man
Outline: as §1

[7] = target: Man(a1-2)Man(a1-2)Man(a1-6)[Man(a1-3)]Man
Outline: as §1

Man(a1-2)Man(a1-3)Man = target: Man(a1-2)Man(a1-3)Man
Outline: as §1

[8] = target: Man(a1-2)Man(a1-3)[Man(a1-2)Man(a1-6)]Man
Outline: as §1

[9] = target: Man(a1-2)Man(a1-3)[Man(a1-2)Man(a1-6)]Man(a1-6)[Man(a1-2)Man(a1-2)Man(a1-3)]Man
Outline: as §1

[10] = target: Man(a1-2)Man(a1-3)[Man(a1-2)Man(a1-6)]Man(a1-6)[Man(a1-2)Man(a1-2)Man(a1-3)]Man(b1-4)GlcNAc(b1-4)GlcNAc
Outline: as §1

[11] = target: Man(a1-2)Man(a1-3)[Man(a1-6)]Man(a1-6)[Man(a1-2)Man(a1-3)]Man(b1-4)GlcNAc(b1-4)GlcNAc
Outline: as §1

[12] = target: Man(a1-2)Man(a1-6)[Man(a1-3)]Man(a1-6)[Man(a1-2)Man(a1-2)Man(a1-3)]Man
Outline: as §1

[13] = target: Man(a1-2)Man(a1-6)[Man(a1-3)]Man(a1-6)[Man(a1-2)Man(a1-2)Man(a1-3)]Man(b1-4)GlcNAc(b1-4)GlcNAc
Outline: as §1

Man(a1-3)[Man(a1-6)]Man = target: Man(a1-3)[Man(a1-6)]Man
Outline: as §1

[14] = target: Man(a1-3)[Man(a1-6)]Man(a1-6)[Man(a1-2)Man(a1-3)]Man(b1-4)GlcNAc(b1-4)GlcNAc
Outline: as §1

[15] = target: Man(a1-3)[Man(a1-6)]Man(a1-6)[Man(a1-3)]Man
Outline: as §1

[16] = target: Man(a1-3)[Man(a1-6)]Man(a1-6)[Man(a1-3)]Man(b1-4)GlcNAc(b1-4)GlcNAc
Outline: as §1

[17] = target: Man(a1-3)[Man(a1-6)]Man(b1-4)GlcNAc(b1-4)GlcNAc
Outline: as §1

[18] = target: Man(a1-3)[Man(a1-6)]Man(b1-4)GlcNAc(b1-4)[Fuc(a1-6)]GlcNAc
Outline: as §1

Man(a1-6)Man = target: Man(a1-6)Man
Outline: as §1

Man(b1-4)GlcNAc = target: Man(b1-4)GlcNAc
Outline: as §1

MurNAc(b1-4)GlcNAc = target: MurNAc(b1-4)GlcNAc
Outline: as §1

Neu5Ac(a2-3)Gal = target: Neu5Ac(a2-3)Gal
Outline: as §1

[19] = target: Neu5Ac(a2-3)Gal(b1-3)GalNAc
Outline: as §1

[20] = target: Neu5Ac(a2-3)Gal(b1-3)GalNAc(b1-3)Gal(a1-4)Gal(b1-4)Glc
Outline: as §1

[21] = target: Neu5Ac(a2-3)Gal(b1-3)GalNAc(b1-4)[Neu5Ac(a2-3)]Gal(b1-4)Glc
Outline: as §1

[22] = target: Neu5Ac(a2-3)Gal(b1-3)GalNAc(b1-4)[Neu5Ac(a2-8)Neu5Ac(a2-3)]Gal(b1-4)Glc
Outline: as §1

[23] = target: Neu5Ac(a2-3)Gal(b1-3)GalNAc6S
Outline: as §1

[24] = target: Neu5Ac(a2-3)Gal(b1-3)GlcNAc
Outline: as §1

[25] = target: Neu5Ac(a2-3)Gal(b1-3)GlcNAc(b1-2)Man
Outline: as §1

[26] = target: Neu5Ac(a2-3)Gal(b1-3)GlcNAc(b1-2)Man(a1-3)[GlcNAc(b1-4)][Neu5Ac(a2-3)Gal(b1-3)GlcNAc(b1-2)Man(a1-6)]Man(b1-4)GlcNAc(b1-4)GlcNAc
Outline: as §1

[27] = target: Neu5Ac(a2-3)Gal(b1-3)GlcNAc(b1-2)Man(a1-3)[Neu5Ac(a2-3)Gal(b1-3)GlcNAc(b1-2)Man(a1-6)]Man(b1-4)GlcNAc(b1-4)GlcNAc
Outline: as §1

[28] = target: Neu5Ac(a2-3)Gal(b1-3)GlcNAc(b1-3)Gal(b1-3)GlcNAc
Outline: as §1

[29] = target: Neu5Ac(a2-3)Gal(b1-3)GlcNAc(b1-3)Gal(b1-4)GlcNAc
Outline: as §1

[30] = target: Neu5Ac(a2-3)Gal(b1-3)GlcNAc(b1-3)GalNAc
Outline: as §1

[31] = target: Neu5Ac(a2-3)Gal(b1-3)GlcNAc(b1-4)Gal(b1-4)Glc
Outline: as §1

[32] = target: Neu5Ac(a2-3)Gal(b1-3)GlcNAc(b1-6)GalNAc
Outline: as §1

[33] = target: Neu5Ac(a2-3)Gal(b1-3)GlcNAc6S
Outline: as §1

B1: Arath Fbox LD (Arabidopsis thaliana) (protein)
chain: EFSVWLEKASGKRCLMLSAMNLSIIWGDNPQYWQWIPIPESRFEKVAKLRDVCWFEIRGRTNTRVLSPRTRYSAYIVFKGVDKCYGFQNVAIEAAVGVVGQEPSRRLICFSEAIRRGRRNVVKPKQREDGWMEIELGEFFNDGGIMDNDEIEMSALETKQLNRKCGLIIQGIEIRPAKILAAASFLEQKLISEEDLNSAVDHHHHHH
Question: B1 was tested. Which “glycan array binding signal (z-score)” value [1] did it give?
Answer: The value was -0.495.

Question: And the “glycan array binding signal (z-score)” value [2]?
Answer: Its value is 1.01.

Question: And the “glycan array binding signal (z-score)” value [3]?
Answer: The value was -0.581.

Question: What about the “glycan array binding signal (z-score)” value (GlcNAc(b1-6)GalNAc) of the same binder?
Answer: The value was -0.539.

Question: What about the “glycan array binding signal (z-score)” value [4] of the same binder?
Answer: Its value is -0.397.

Question: And the “glycan array binding signal (z-score)” value (Kdn(a2-3)Gal(b1-3)GalNAc)?
Answer: The value was -0.502.

Question: What about the “glycan array binding signal (z-score)” value (Kdn(a2-3)Gal(b1-3)GlcNAc) of the same binder?
Answer: Its value is -0.08.

Question: What about the “glycan array binding signal (z-score)” value (Kdn(a2-3)Gal(b1-4)Glc) of the same binder?
Answer: Its value is -0.606.

Question: What about the “glycan array binding signal (z-score)” value (Kdn(a2-3)Gal(b1-4)GlcNAc) of the same binder?
Answer: The value was 0.734.

Question: What about the “glycan array binding signal (z-score)” value [5] of the same binder?
Answer: The value was -0.387.

Question: What about the “glycan array binding signal (z-score)” value (Kdn(a2-6)Gal(b1-4)GlcNAc) of the same binder?
Answer: Its value is -0.622.

Question: And the “glycan array binding signal (z-score)” value [6]?
Answer: The value was -0.56.

Question: And the “glycan array binding signal (z-score)” value [7]?
Answer: The value was -0.487.

Question: And the “glycan array binding signal (z-score)” value (Man(a1-2)Man(a1-3)Man)?
Answer: The value was -0.425.

Question: What about the “glycan array binding signal (z-score)” value [8] of the same binder?
Answer: Its value is -0.473.

Question: And the “glycan array binding signal (z-score)” value [9]?
Answer: The value was 0.01.

Question: And the “glycan array binding signal (z-score)” value [10]?
Answer: Its value is -0.521.

Question: What about the “glycan array binding signal (z-score)” value [11] of the same binder?
Answer: The value was -0.337.

Question: And the “glycan array binding signal (z-score)” value [12]?
Answer: The value was -0.473.

Question: What about the “glycan array binding signal (z-score)” value [13] of the same binder?
Answer: Its value is -0.266.

Question: And the “glycan array binding signal (z-score)” value (Man(a1-3)[Man(a1-6)]Man)?
Answer: The value was -0.029.

Question: What about the “glycan array binding signal (z-score)” value [14] of the same binder?
Answer: Its value is -0.43.

Question: And the “glycan array binding signal (z-score)” value [15]?
Answer: Its value is -0.406.

Question: And the “glycan array binding signal (z-score)” value [16]?
Answer: The value was -0.49.

Question: And the “glycan array binding signal (z-score)” value [17]?
Answer: Its value is -0.547.

Question: And the “glycan array binding signal (z-score)” value [18]?
Answer: Its value is -0.562.

Question: What about the “glycan array binding signal (z-score)” value (Man(a1-6)Man) of the same binder?
Answer: Its value is 2.7.

Question: What about the “glycan array binding signal (z-score)” value (Man(b1-4)GlcNAc) of the same binder?
Answer: Its value is -0.511.

Question: And the “glycan array binding signal (z-score)” value (MurNAc(b1-4)GlcNAc)?
Answer: Its value is -0.568.

Question: And the “glycan array binding signal (z-score)” value (Neu5Ac(a2-3)Gal)?
Answer: Its value is -0.404.

Question: And the “glycan array binding signal (z-score)” value [19]?
Answer: Its value is -0.126.

Question: And the “glycan array binding signal (z-score)” value [20]?
Answer: Its value is 0.141.

Question: What about the “glycan array binding signal (z-score)” value [21] of the same binder?
Answer: The value was -0.164.

Question: What about the “glycan array binding signal (z-score)” value [22] of the same binder?
Answer: Its value is -0.316.

Question: And the “glycan array binding signal (z-score)” value [23]?
Answer: The value was 0.414.

Question: And the “glycan array binding signal (z-score)” value [24]?
Answer: The value was 0.153.

Question: And the “glycan array binding signal (z-score)” value [25]?
Answer: Its value is 2.03.

Question: What about the “glycan array binding signal (z-score)” value [26] of the same binder?
Answer: The value was -0.462.

Question: What about the “glycan array binding signal (z-score)” value [27] of the same binder?
Answer: The value was 0.842.

Question: What about the “glycan array binding signal (z-score)” value [28] of the same binder?
Answer: Its value is -0.423.

Question: And the “glycan array binding signal (z-score)” value [29]?
Answer: The value was -0.086.

Question: And the “glycan array binding signal (z-score)” value [30]?
Answer: Its value is -0.567.

Question: And the “glycan array binding signal (z-score)” value [31]?
Answer: Its value is -0.648.

Question: What about the “glycan array binding signal (z-score)” value [32] of the same binder?
Answer: Its value is -0.64.

Question: What about the “glycan array binding signal (z-score)” value [33] of the same binder?
Answer: Its value is -0.302.
